Experimental data: PMC12820563, “FoxP3 forms a head-to-head dimer in vivo and stabilizes its multimerization on adjacent microsatellites”
Some of the results follow.

target: T1, MBP-FoxP1dN (Mus musculus, UniProt P58462 326-579); assay: PD-seq (MBP pull-down with sequencing); 20 mM Tris-HCl pH 7.5, 100 mM NaCl, 1.5 mM MgCl2, 0.4 uM protein, 0.1 uM dsDNA library, 30 min, room temperature, amylose pull-down; high values mean tight binding; conditions: protein: recombinant; tags: His6-MBP; chain copies: 2; dsDNA, one strand shown
T1 sequence: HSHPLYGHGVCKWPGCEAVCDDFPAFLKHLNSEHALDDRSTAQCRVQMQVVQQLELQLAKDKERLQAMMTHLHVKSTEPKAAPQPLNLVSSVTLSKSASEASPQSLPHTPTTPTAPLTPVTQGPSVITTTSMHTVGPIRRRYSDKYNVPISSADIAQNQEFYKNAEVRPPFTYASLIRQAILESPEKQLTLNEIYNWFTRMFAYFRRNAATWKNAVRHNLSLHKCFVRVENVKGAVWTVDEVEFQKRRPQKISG
Summary of the method: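 E. coli-expressed mouse FoxP3 or FoxP1 fragment, N-terminus removed and tagged with His6-MBP, was used at 0.4 µM against 0.1 µM of a Klenow-filled degenerate double-stranded DNA library. After 30 min at room temperature in Tris pH 7.5 buffer with NaCl and MgCl2, complexes were pulled down on amylose resin and washed three times. Binding is pull-down over input reads-per-million enrichment from pooled replicates of the proteinase K-released, PCR-barcoded, Illumina-sequenced DNA.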

| Sequence | binding signal |
| --- | --- |
| GATGATTGTTCTCCCAGCTGATGAATTTCGTGCTTCGAGTAAACAAATTTTCCTAATCTTTCTGTTCAAGCGCCATCTAC | 0.919 RPM ratio (pull-down/input) |
| GATGATTGTTCTCCCAGCTGATGAATTACGAGTGTCGAGTAAACAAATTTTCCTAATCTTTCTGTTCAAGCGCCATCTAC | 1.09 RPM ratio (pull-down/input) |
| GATGATTGTTCTCCCAGCTGATGAATTTTGCGGATCGAGTAAACAAATTTTCCTAATCTTTCTGTTCAAGCGCCATCTAC | 0.89 RPM ratio (pull-down/input) |
| GATGATTGTTCTCCCAGCTGATGAATTGACCTCCTCGAGTAAACAAATTTTCCTAATCTTTCTGTTCAAGCGCCATCTAC | 0.877 RPM ratio (pull-down/input) |
| GATGATTGTTCTCCCAGCTGATGAATTGGACCGCTCGAGTAAACAAATTTTCCTAATCTTTCTGTTCAAGCGCCATCTAC | 0.785 RPM ratio (pull-down/input) |
| GATGATTGTTCTCCCAGCTGATGAATTCACGGATTCGAGTAAACAAATTTTCCTAATCTTTCTGTTCAAGCGCCATCTAC | 0.876 RPM ratio (pull-down/input) |
| GATGATTGTTCTCCCAGCTGATGAATTAGTAGGGTCGAGTAAACAAATTTTCCTAATCTTTCTGTTCAAGCGCCATCTAC | 0.898 RPM ratio (pull-down/input) |
| GATGATTGTTCTCCCAGCTGATGAATTACCACCGTCGAGTAAACAAATTTTCCTAATCTTTCTGTTCAAGCGCCATCTAC | 0.941 RPM ratio (pull-down/input) |
| GATGATTGTTCTCCCAGCTGATGAATTGTTTGGTTCGAGTAAACAAATTTTCCTAATCTTTCTGTTCAAGCGCCATCTAC | 1.81 RPM ratio (pull-down/input) |
| GATGATTGTTCTCCCAGCTGATGAATTTGCAGGATCGAGTAAACAAATTTTCCTAATCTTTCTGTTCAAGCGCCATCTAC | 0.869 RPM ratio (pull-down/input) |
| GATGATTGTTCTCCCAGCTGATGAATTGGCAGAGTCGAGTAAACAAATTTTCCTAATCTTTCTGTTCAAGCGCCATCTAC | 0.838 RPM ratio (pull-down/input) |
| GATGATTGTTCTCCCAGCTGATGAATTTTTCCCATCGAGTAAACAAATTTTCCTAATCTTTCTGTTCAAGCGCCATCTAC | 1 RPM ratio (pull-down/input) |
| GATGATTGTTCTCCCAGCTGATGAATTCTCTCGATCGAGTAAACAAATTTTCCTAATCTTTCTGTTCAAGCGCCATCTAC | 0.877 RPM ratio (pull-down/input) |
| GATGATTGTTCTCCCAGCTGATGAATTCATATCTTCGAGTAAACAAATTTTCCTAATCTTTCTGTTCAAGCGCCATCTAC | 0.965 RPM ratio (pull-down/input) |
| GATGATTGTTCTCCCAGCTGATGAATTATCCAGGTCGAGTAAACAAATTTTCCTAATCTTTCTGTTCAAGCGCCATCTAC | 0.843 RPM ratio (pull-down/input) |
| GATGATTGTTCTCCCAGCTGATGAATTTCCTTTCTCGAGTAAACAAATTTTCCTAATCTTTCTGTTCAAGCGCCATCTAC | 0.78 RPM ratio (pull-down/input) |

| Sequence | binding signal |
| --- | --- |
| GATGATTGTTCTCCCAGCTGATGAATTAGTTCTCTCGAGTAAACAAATTTTCCTAATCTTTCTGTTCAAGCGCCATCTAC | 0.897 RPM ratio (pull-down/input) |
| GATGATTGTTCTCCCAGCTGATGAATTACGTGCCTCGAGTAAACAAATTTTCCTAATCTTTCTGTTCAAGCGCCATCTAC | 1.09 RPM ratio (pull-down/input) |
| GATGATTGTTCTCCCAGCTGATGAATTTCCCTACTCGAGTAAACAAATTTTCCTAATCTTTCTGTTCAAGCGCCATCTAC | 0.856 RPM ratio (pull-down/input) |
| GATGATTGTTCTCCCAGCTGATGAATTGGTTTGGTCGAGTAAACAAATTTTCCTAATCTTTCTGTTCAAGCGCCATCTAC | 0.947 RPM ratio (pull-down/input) |
| GATGATTGTTCTCCCAGCTGATGAATTCCTATCGTCGAGTAAACAAATTTTCCTAATCTTTCTGTTCAAGCGCCATCTAC | 0.886 RPM ratio (pull-down/input) |
| GATGATTGTTCTCCCAGCTGATGAATTTGCCCATTCGAGTAAACAAATTTTCCTAATCTTTCTGTTCAAGCGCCATCTAC | 1.01 RPM ratio (pull-down/input) |
| GATGATTGTTCTCCCAGCTGATGAATTCCTGTGATCGAGTAAACAAATTTTCCTAATCTTTCTGTTCAAGCGCCATCTAC | 0.93 RPM ratio (pull-down/input) |
| GATGATTGTTCTCCCAGCTGATGAATTGGCAGACTCGAGTAAACAAATTTTCCTAATCTTTCTGTTCAAGCGCCATCTAC | 0.771 RPM ratio (pull-down/input) |
| GATGATTGTTCTCCCAGCTGATGAATTCCCGAGGTCGAGTAAACAAATTTTCCTAATCTTTCTGTTCAAGCGCCATCTAC | 0.751 RPM ratio (pull-down/input) |
| GATGATTGTTCTCCCAGCTGATGAATTCATGTCTTCGAGTAAACAAATTTTCCTAATCTTTCTGTTCAAGCGCCATCTAC | 0.94 RPM ratio (pull-down/input) |
| GATGATTGTTCTCCCAGCTGATGAATTACCCCACTCGAGTAAACAAATTTTCCTAATCTTTCTGTTCAAGCGCCATCTAC | 0.938 RPM ratio (pull-down/input) |
| GATGATTGTTCTCCCAGCTGATGAATTGGTTTATTCGAGTAAACAAATTTTCCTAATCTTTCTGTTCAAGCGCCATCTAC | 1.17 RPM ratio (pull-down/input) |
| GATGATTGTTCTCCCAGCTGATGAATTTTTCTAGTCGAGTAAACAAATTTTCCTAATCTTTCTGTTCAAGCGCCATCTAC | 0.926 RPM ratio (pull-down/input) |
| GATGATTGTTCTCCCAGCTGATGAATTAGACAAGTCGAGTAAACAAATTTTCCTAATCTTTCTGTTCAAGCGCCATCTAC | 1.08 RPM ratio (pull-down/input) |
| GATGATTGTTCTCCCAGCTGATGAATTTAAATATTCGAGTAAACAAATTTTCCTAATCTTTCTGTTCAAGCGCCATCTAC | 1.08 RPM ratio (pull-down/input) |
